The text below walks through data of publication PMC4336329 (PLoS ONE, 2015).

Hit rate of the full screen: of about 310,000 compounds, about 14,000 (4.5%) showed an effect of 50% or more. The effect is printed as a negative number. Some of the results follow.
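Further: peak tail current of the secondary pulse compared with the same well before compound.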

The assay deals with human ether-à-go-go-related gene (hERG) potassium channel (human, UniProt Q12809). Nature of the assay: primary screen, population patch clamp on CHO cells stably expressing hERG.
Chain of human ether-à-go-go-related gene (hERG) potassium channel (Q12809 whole entry, looked up): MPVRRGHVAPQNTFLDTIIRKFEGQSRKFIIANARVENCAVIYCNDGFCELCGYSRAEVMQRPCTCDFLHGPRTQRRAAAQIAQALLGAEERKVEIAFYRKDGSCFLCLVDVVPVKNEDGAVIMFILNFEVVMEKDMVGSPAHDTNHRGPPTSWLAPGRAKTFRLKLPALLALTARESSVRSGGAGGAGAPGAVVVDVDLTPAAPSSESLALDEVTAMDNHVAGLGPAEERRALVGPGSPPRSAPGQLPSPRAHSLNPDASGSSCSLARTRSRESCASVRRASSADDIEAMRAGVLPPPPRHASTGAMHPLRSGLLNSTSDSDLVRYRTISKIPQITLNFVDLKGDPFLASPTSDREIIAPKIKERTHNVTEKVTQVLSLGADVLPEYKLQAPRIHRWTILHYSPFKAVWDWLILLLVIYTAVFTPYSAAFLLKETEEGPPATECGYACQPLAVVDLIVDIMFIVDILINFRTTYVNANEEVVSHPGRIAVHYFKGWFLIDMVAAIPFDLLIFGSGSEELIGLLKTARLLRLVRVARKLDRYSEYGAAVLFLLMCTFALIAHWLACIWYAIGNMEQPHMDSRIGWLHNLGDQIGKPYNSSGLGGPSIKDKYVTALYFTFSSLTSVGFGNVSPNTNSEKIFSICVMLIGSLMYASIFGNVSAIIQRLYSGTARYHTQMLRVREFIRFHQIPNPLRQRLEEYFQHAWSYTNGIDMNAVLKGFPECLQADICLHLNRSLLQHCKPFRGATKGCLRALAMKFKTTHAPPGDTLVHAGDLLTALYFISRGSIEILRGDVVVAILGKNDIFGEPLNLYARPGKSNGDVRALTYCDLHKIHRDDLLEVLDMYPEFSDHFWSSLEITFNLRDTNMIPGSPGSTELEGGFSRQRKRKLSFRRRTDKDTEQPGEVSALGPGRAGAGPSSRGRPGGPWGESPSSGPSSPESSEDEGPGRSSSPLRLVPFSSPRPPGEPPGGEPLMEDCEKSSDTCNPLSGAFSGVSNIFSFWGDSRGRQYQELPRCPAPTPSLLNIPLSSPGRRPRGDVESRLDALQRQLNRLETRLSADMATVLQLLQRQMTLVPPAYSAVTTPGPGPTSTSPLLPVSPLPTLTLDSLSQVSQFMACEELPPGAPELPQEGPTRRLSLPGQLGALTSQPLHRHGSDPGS
For the compound `N#C/C(=C\c1ccc(O)c(O)c1)C(=O)NCCCc1ccccc1`, the “hERG current change (%, negative = inhibition) at 10uM” value is listed as -1.59%.
`CC(c1ccco1)N(C(=O)COc1ccccc1[N+](=O)[O-])c1ccccn1` (stereo not shown): the “hERG current change (%, negative = inhibition) at 10uM” value is -3.94%.
Consider `CCCOc1cccc(C2/C(=C(/O)c3ccc(F)cc3)C(=O)C(=O)N2CCN(C)C)c1` (stereo not shown), for which the “hERG current change (%, negative = inhibition) at 10uM” value was 18.8%.
`CCN(CC)CCN(C(=O)c1ccc2c(c1)OCCO2)c1nc2c(Cl)cccc2s1.Cl`: the “hERG current change (%, negative = inhibition) at 10uM” value is -54.7%.
For `COc1cc(C)c(S(=O)(=O)NOCc2ccc([N+](=O)[O-])cc2)c(C)c1C`, the “hERG current change (%, negative = inhibition) at 10uM” value was 8.43%.
Regarding `COc1ccccc1CC(=O)NCCCc1ccccc1`, the “hERG current change (%, negative = inhibition) at 10uM” value stood at 1.29%.
As to `CN1C(=O)C(O)(CC(=O)c2ccccn2)c2cc(Br)ccc21` (stereo not shown), the “hERG current change (%, negative = inhibition) at 10uM” value turned out to be 2.31%.
For `CN(C(=O)c1cccc(C(F)(F)F)c1)C1CCCc2ccccc21` (stereo not shown) the value was -26.9%.
Turning to `Cc1cccc(C)c1-n1nnnc1C(C)(C)N1CCN(N=O)CC1`, the “hERG current change (%, negative = inhibition) at 10uM” value was 14.7%.
For the compound `Cc1nnc2ccc(-c3ccc(NS(=O)(=O)c4ccccc4[N+](=O)[O-])cc3)nn12`, the “hERG current change (%, negative = inhibition) at 10uM” value is 0.245%.
For `COc1ccc(-n2c(SCC(=O)Nc3ccccc3OC)nc(O)cc2=O)cc1` the value was 16%; for `O=C(OCc1ccccc1)/C(=C/c1ccccc1Cl)NC(=O)c1ccco1`, 2.13%; for `Cc1onc(-c2ccccc2)c1CNC(=O)Nc1ccc(F)cc1F`, 0.557%.
Turning to `CCOC(=O)CN1C(=O)C(Sc2n[nH]c(-c3ccccc3)n2)CCc2ccccc21` (stereo not shown), the “hERG current change (%, negative = inhibition) at 10uM” value is -19.9%.
Consider `C#CCOCCOCCOCCNc1nc(N2CCN(C(=O)[C@H]([C@@H](C)CC)n3cc(CCCC[NH3+])nn3)CC2)nc(N2CCN(C(=O)[C@H](CCCC[NH3+])n3cc(CCCC)nn3)CC2)n1.[Cl-]`, for which the “hERG current change (%, negative = inhibition) at 10uM” value turned out to be 8.1%.
For `O=S(=O)(c1cnc[nH]1)N1CCN(c2ccccc2)CC1` the value was 14%; for `CCN(CC)C(=O)COc1ccc2c3c(c(=O)oc2c1C)CCCC3`, 1.54%.
Turning to `CSCC[C@H](NC(=O)[C@@H]1Cc2ccccc2CN1)C(=O)Nc1ccc2c(c1)OCCO2`, the “hERG current change (%, negative = inhibition) at 10uM” value is -65.5%.
With `CCOC(=O)C1=C(N)OC2=C(C(=O)CC(C)(C)C2)C1c1cc(CSc2nnnn2C)cs1` (stereo not shown), the “hERG current change (%, negative = inhibition) at 10uM” value is recorded as -29.7%.
Consider `COc1ccc(C2(c3ccc(OC)cc3)NC(=O)N(Cn3nnc4ccccc4c3=O)C2=O)cc1`, for which the “hERG current change (%, negative = inhibition) at 10uM” value was -39.7%.
Regarding `CC(=O)c1cccc(NC(=O)c2sc3nc4n(c(=O)c3c2C)CCCC4)c1`, the “hERG current change (%, negative = inhibition) at 10uM” value is reported as 4.65%.
Take `CN(c1ccc(OCC(=O)O)cc1)S(=O)(=O)c1ccc2ccccc2c1`: the “hERG current change (%, negative = inhibition) at 10uM” value stood at 16.1%.
On to `COCCNC(=O)CSc1nc2cc3c(cc2c(=O)n1CCCC(=O)NCc1ccc(OC)cc1)OCO3`, for which the “hERG current change (%, negative = inhibition) at 10uM” value is -4.38%.
For `COc1cccc2sc(N(CCN(C)C)C(=O)c3ccc4c(c3)CCCC4)nc12.Cl` the value was -66.7%; for `O=C(COC(=O)c1ccc(O)cc1)NCCC1=CCCCC1`, -8.6%.
Regarding `CN1C(=O)c2cccc(NCCCN3C(=O)c4ccccc4C3=O)c2C1=O`, the “hERG current change (%, negative = inhibition) at 10uM” value was determined as 5.16%.
Consider `CCOC(=O)CC1(C)OCC(C[N+]2(C)CCCCC2)O1.[I-]` (stereo not shown), for which the “hERG current change (%, negative = inhibition) at 10uM” value was -16.5%.
For `C=C(C)c1cccc(C(C)(C)NC(=O)N2CCN(C)CC2)c1` the value was 11.1%.
With `CCn1cc(C(=O)O)c(=O)c2cc(F)c(N3CCN(S(=O)(=O)c4ccc(NC(=O)OC)cc4)CC3)cc21`, the “hERG current change (%, negative = inhibition) at 10uM” value is 21.8%.
Take `O=C1NC(=O)C2(CCc3ccccc32)N1` (stereo not shown): the “hERG current change (%, negative = inhibition) at 10uM” value worked out at 5.19%.
For `CCC(=O)Nc1cccc(C2=NOC3(C2)C[C@@H](C(N)=O)N(C(=O)CC)C3)c1` (stereo partly shown) the value was 15.2%; for `CC(=O)Oc1ccc(/C=C2/CCc3ccccc3C2=O)cc1`, 3.78%; for `CC(=O)c1nc2ccccc2n1Cc1ccccc1`, -2.37%.
As for `O=C(NCCN1CCOCC1)N1c2ccccc2Sc2ccccc21`, the “hERG current change (%, negative = inhibition) at 10uM” value came out at 6.51%.
Regarding `COc1ccccc1N1CCN(S(=O)(=O)c2ccc(-c3cnc(C4CC4)o3)cc2)CC1`, the “hERG current change (%, negative = inhibition) at 10uM” value came out at 6.99%.
In the case of `Cc1cc(=O)n2nc(N3CCCC(C(=O)N4CCN(c5ccccc5)CC4)C3)sc2n1` (stereo not shown), the “hERG current change (%, negative = inhibition) at 10uM” value is -53.5%.
In the case of `CCCCC12CN3CC(C)(CN(C1)C31C(=O)N(C)c3ccc(C)cc31)C2=O` (stereo not shown), the “hERG current change (%, negative = inhibition) at 10uM” value was -3.75%.
Consider `O=C(CSc1nnnn1-c1ccccc1)Nc1ccc(N2CCOCC2)cc1`, for which the “hERG current change (%, negative = inhibition) at 10uM” value is given as -5.75%.
For the compound `COc1cc(CCC(=O)OCC(=O)Nc2nc(C)c(Cl)cc2Cl)cc(OC)c1OC`, the “hERG current change (%, negative = inhibition) at 10uM” value is listed as -16.1%.
`Brc1ccc(CN2CCCCCC2)cc1`: the “hERG current change (%, negative = inhibition) at 10uM” value is -30.3%.
Turning to `O=C(NNC(=O)c1ccc(Br)s1)c1csc(N2CCOCC2)n1`, the “hERG current change (%, negative = inhibition) at 10uM” value was 7.54%.
Turning to `CCC(C)c1ccccc1N1CC(C(=O)Nc2ccc(S(=O)(=O)N3CCOCC3)cc2)CC1=O` (stereo not shown), the “hERG current change (%, negative = inhibition) at 10uM” value is given as -9.78%.
As for `CCCN1C(=O)c2ccc(C(=O)Nc3nccs3)cc2C1=O`, the “hERG current change (%, negative = inhibition) at 10uM” value is on record as -13.6%.
